The text below walks through data of the antibiotic and cytotoxicity screens of Wong et al. (2023).

The subject of one test is HSkMC. Nature of the test: cytotoxicity call (relative viability < 0.9). The note with it: 10 µM.
The next test has as its system HepG2. Kind of test: cytotoxicity call (relative viability < 0.9). The note with it: 10 µM.
The test system of the next test is S. aureus RN4220. Kind of test: growth inhibition call (relative growth <= 0.2). As to conditions: 50 µM.

The structures appear in SMILES notation. The list shows a part of the results.

Turning to `COCC(=O)Nc1ccc2c(c1)OC[C@@H](C)N(Cc1ccccc1OC)C[C@@H](C)[C@@H](OC)CN(C)C2=O`, the cytotoxicity call in the test on HSkMC and in the test on HepG2 was “inactive” each time. Besides, the growth inhibition call with S. aureus RN4220 is “inactive”.
Take `[N-]=[N+]=NCc1ccccc1C[C@]1(C(=O)N2CCCCC2)N=C(c2ccc(OCCCO)cc2)O[C@H]1c1ccccc1`: the cytotoxicity call with HSkMC and in the test on HepG2 was “inactive” in each case. The growth inhibition call with S. aureus RN4220 was “inactive”.
Turning to `C[C@H](CO)N1C[C@H](C)[C@@H](CN(C)S(=O)(=O)c2ccc(F)cc2)OCCCC[C@H](C)Oc2ccc(NC(=O)C3CCCCC3)cc2C1=O`, the cytotoxicity call in the test with HSkMC and in the test with HepG2 was “inactive” in each case. The growth inhibition call in the test on S. aureus RN4220 was “inactive”.
For the compound `C[C@@H]1CN([C@H](C)CO)C(=O)c2cccc(NC(=O)C3CCCCC3)c2O[C@@H]1CN(C)Cc1ccc(C(=O)Nc2ccccc2N)cc1`, the cytotoxicity call in the test with HSkMC and in the test on HepG2 was “inactive” throughout. Further, in the test with S. aureus RN4220, the growth inhibition call is “inactive”.
Regarding `C[C@@H]1CCCCO[C@@H](CN(C)Cc2ccc3c(c2)OCO3)[C@@H](C)CN([C@H](C)CO)C(=O)c2cc(NC(=O)CCC(F)(F)F)ccc2O1`, the cytotoxicity call in the test with HSkMC and in the test on HepG2 was “inactive” in each case. In addition, the growth inhibition call in the test on S. aureus RN4220 was “inactive”.
On to `O=C1NC(=O)NC2(N1)C(=O)Nc1ccccc12`, for which the cytotoxicity call in the test with HSkMC and in the test with HepG2 was “inactive” each time. In addition, the growth inhibition call in the test on S. aureus RN4220 is “inactive”.
With `O=C(C[C@H]1C=C[C@@H](NC(=O)Cc2ccccn2)[C@@H](CO)O1)NCCCN1CCOCC1`, the cytotoxicity call in the test with HSkMC and with HepG2 was “inactive” in each case. In addition, in the test on S. aureus RN4220, the growth inhibition call is “inactive”.
`C[C@@H]1CN([C@@H](C)CO)C(=O)c2cc(-c3cccc(C(=O)N(C)C)c3)cnc2O[C@H]1CN(C)S(=O)(=O)c1ccc(F)cc1`: the cytotoxicity call in the test on HSkMC and in the test with HepG2 was “inactive” throughout. Further, the growth inhibition call with S. aureus RN4220 was “inactive”.
As to `C[C@H](NC(=O)C[C@H]1C=C[C@@H](NC(=O)CN2CCOCC2)[C@@H](CO)O1)c1ccccc1`, the cytotoxicity call with HSkMC and in the test on HepG2 was “inactive” throughout. Further, the growth inhibition call in the test with S. aureus RN4220 is “inactive”.
Consider `CO[C@@H]1CN(C)C(=O)c2ccc(NC(=O)C3CCOCC3)cc2OC[C@H](C)N(Cc2cccnc2)C[C@@H]1C`, for which the cytotoxicity call in the test with HSkMC and in the test on HepG2 was “inactive” in each case. In addition, in the test on S. aureus RN4220, the growth inhibition call is “inactive”.
Take `Cc1noc(C)c1S(=O)(=O)Nc1cccc2c1O[C@H](CN(C)Cc1ccc3c(c1)OCO3)[C@H](C)CN([C@H](C)CO)C2=O`: the cytotoxicity call in the test with HSkMC and with HepG2 was “inactive” throughout. For the same compound, the growth inhibition call with S. aureus RN4220 was “inactive”.
Turning to `COc1ccc(NC(=O)Nc2ccc3c(c2)C(=O)N([C@H](C)CO)C[C@H](C)[C@H](CN(C)S(=O)(=O)c2c(C)noc2C)OCCCC[C@H](C)O3)cc1`, the cytotoxicity call in the test with HSkMC and in the test on HepG2 was “inactive” throughout. Further, the growth inhibition call in the test on S. aureus RN4220 was “inactive”.
With `C[C@@H]1CCCCO[C@H](CN(C)C(=O)Nc2ccc3c(c2)OCO3)[C@@H](C)CN([C@@H](C)CO)C(=O)c2cc(NS(=O)(=O)c3ccc(F)cc3)ccc2O1`, the cytotoxicity call in the test on HSkMC and in the test on HepG2 was “inactive” throughout. For the same compound, the growth inhibition call in the test with S. aureus RN4220 is “inactive”.
For the compound `C[C@H](CO)N1C[C@H](C)[C@@H](CN(C)C(=O)Nc2ccc(F)cc2)OCCCC[C@H](C)Oc2ccc(NC(=O)Nc3ccccc3)cc2C1=O`, the cytotoxicity call with HSkMC and in the test with HepG2 was “inactive” in each case. Moreover, the growth inhibition call with S. aureus RN4220 was “inactive”.
For the compound `C[C@@H]1CN([C@H](C)CO)C(=O)Cc2cc(NS(=O)(=O)c3cn(C)cn3)ccc2O[C@@H]1CN(C)Cc1ccc(C(=O)Nc2ccccc2N)cc1`, the cytotoxicity call in the test with HSkMC and in the test with HepG2 was “inactive” throughout. The growth inhibition call in the test on S. aureus RN4220 was “inactive”.
Regarding `O=C(C[C@H]1CC[C@H](NC(=O)c2cnccn2)[C@H](CO)O1)NCc1ccccc1F`, the cytotoxicity call in the test on HSkMC and with HepG2 was “inactive” in each case. The growth inhibition call with S. aureus RN4220 was “inactive”.
With `C=CCC[C@H](Cc1ccc(F)cc1)C(=O)OC[C@@H](Cc1c[nH]c2ccccc12)NC(=O)[C@H](CC=C)CC(=O)N(CCO)Cc1ccccc1`, the cytotoxicity call with HSkMC and in the test with HepG2 was “active” in each case. Besides, the growth inhibition call in the test on S. aureus RN4220 is “inactive”.
Take `CC(=O)N[C@H]1C(=O)Nc2ccc(F)cc21`: the cytotoxicity call with HSkMC and with HepG2 was “inactive” throughout. Further, the growth inhibition call with S. aureus RN4220 was “inactive”.
On to `COc1ccc(NC(=O)N(C)C[C@@H]2OCc3ccccc3-c3c(n(C)c4ccccc34)C(=O)N([C@@H](C)CO)C[C@@H]2C)c(OC)c1`, for which the cytotoxicity call with HSkMC and in the test on HepG2 was “inactive” throughout. The growth inhibition call with S. aureus RN4220 is “inactive”.
Consider `CCCC(=O)Nc1ccc2c(c1)OC[C@@H](C)N(Cc1ccc(-c3ccccn3)cc1)C[C@@H](C)[C@@H](OC)CN(C)C2=O`, for which the cytotoxicity call with HSkMC and in the test on HepG2 was “inactive” each time. Further, the growth inhibition call with S. aureus RN4220 was “inactive”.
As for `O=C(O)C=CC=Cc1ccccc1`, the cytotoxicity call in the test with HSkMC and in the test on HepG2 was “inactive” in each case. Also, the growth inhibition call in the test with S. aureus RN4220 was “inactive”.
Take `C[C@@H]1CN([C@@H](C)CO)C(=O)c2cc(NC(=O)Nc3ccc(F)cc3)ccc2O[C@@H]1CN(C)S(=O)(=O)c1cn(C)cn1`: the cytotoxicity call with HSkMC and with HepG2 was “inactive” throughout. For the same compound, the growth inhibition call in the test on S. aureus RN4220 was “inactive”.
Consider `C[C@H](CO)N1C[C@H](C)[C@H](CN(C)Cc2ccc(-c3ccccc3)cc2)Oc2ccc(NC(=O)CCCCCC(=O)Nc3ccccc3N)cc2C1=O`, for which the cytotoxicity call with HSkMC is “inactive”. For the same compound, the cytotoxicity call in the test on HepG2 was “active”. Further, the growth inhibition call in the test on S. aureus RN4220 was “inactive”.
As to `COc1ccc(NC(=O)N(C)C[C@@H]2OCCCC[C@@H](C)Oc3ccc(NS(=O)(=O)c4ccccc4)cc3C(=O)N([C@@H](C)CO)C[C@H]2C)cc1`, the cytotoxicity call in the test with HSkMC and in the test on HepG2 was “inactive” in each case. Moreover, in the test on S. aureus RN4220, the growth inhibition call was “inactive”.
For `COCC#Cc1ccc2c(c1)O[C@H](CN(C)C(=O)c1ccccc1)[C@H](C)CN([C@@H](C)CO)S2(=O)=O`, the cytotoxicity call with HSkMC and in the test with HepG2 was “inactive” throughout. Also, the growth inhibition call in the test on S. aureus RN4220 was “inactive”.
In the case of `C[C@@H]1CN([C@H](C)CO)C(=O)c2cccc(NC(=O)Nc3ccc(C(F)(F)F)cc3)c2O[C@@H]1CN(C)Cc1ccc(Oc2ccccc2)cc1`, the cytotoxicity call with HSkMC is “active”. The cytotoxicity call in the test on HepG2 is “inactive”. Moreover, the growth inhibition call in the test with S. aureus RN4220 was “inactive”.
On to `C[C@@H]1CN([C@H](C)CO)C(=O)c2cccc(NC(=O)Nc3ccc(C(F)(F)F)cc3)c2O[C@@H]1CN(C)Cc1ccc(C(=O)Nc2ccccc2N)cc1`, for which the cytotoxicity call in the test on HSkMC (human skeletal muscle cells) and in the test on HepG2 was “inactive” in each case. Besides, the growth inhibition call in the test with S. aureus RN4220 is “inactive”.
